Assay results taken from the supplement of paper PMC4967469.
pIC50: −log10 of the molar value. A lower IC50 marks a more sensitive line; a fit beyond the top or the lowest dose is shown as a bound at that dose. AUC sums up the same curve from the lowest dose to the 256-fold higher top dose; the more sensitive the line, the further below 1. For part of these data: A top dose marked as inferred is not printed in the source and was worked back from the curve model.

Legend:
Test in all cases: Viability of human cancer cell lines after 72 h of drug (GDSC screen)
[1] = compound: NC(=O)Nc1cc(-c2cccc(F)c2)sc1C(=O)N[C@H]1CCCNC1 [AZD7762]; settings: top dose 2 µM
Procedure: (§1)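 Human cancer cell lines in 384-well plates, medium with 10% serum, drug for 72 h over a 256-fold dose range (nine 2-fold or five 4-fold steps up to the top dose). Adherent lines were fixed and stained with the nucleic acid dye Syto60, suspension lines read with resazurin; signal relative to control wells, capped at 0 and 100%. One two-parameter sigmoid per drug and line, fitted in a mixed model over all curves with the slope shared within a line.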

[2] = compound: Cc1ccc2nc(NCCN)c3ncc(C)n3c2c1 [BMS-345541]; settings: top dose 16 µM
Procedure: as §1

[3] = compound: C=C(c1ccc(C(=O)O)cc1)c1cc2c(cc1C)C(C)(C)CCC2(C)C [Bexarotene]; settings: top dose 8 µM
Procedure: as §1

[4] = compound: O=C(O)c1ccc(-c2c[nH]c3ncc(-c4ccccc4)cc23)cc1C1CCCC1 [GSK-650394]; settings: top dose 16 µM; top dose inferred
Procedure: as §1

[5] = compound: Oc1nc(-c2ccc(C(F)(F)F)cc2)nc2c1CSCC2 [XAV 939]; settings: top dose 5 µM; top dose inferred
Procedure: as §1

[6] = compound: COc1cc([C@@H]2c3cc4c(cc3[C@@H](O[C@@H]3O[C@@H]5CO[C@@H](C)O[C@H]5[C@H](O)[C@H]3O)[C@H]3COC(=O)[C@H]23)OCO4)cc(OC)c1O [Etoposide]; settings: top dose 16 µM
Procedure: as §1

[7] = compound: COc1cc(C(=O)NC2CCN(C)CC2)ccc1Nc1ncc2c(n1)N(C1CCCC1)C(C)CC(=O)N2C [NPK76-II-72-1]; settings: top dose 10.24 µM; top dose inferred
Procedure: as §1

[8] = compound: COc1ccc(C(=O)CC2(O)C(=O)Nc3c(Cl)ccc(Cl)c32)cc1 [YK 4-279]; settings: top dose 10 µM
Procedure: as §1

Cell Line	AUC [1]	pIC50 [1]	AUC [2]	pIC50 [2]	AUC [3]	pIC50 [3]	AUC [4]	pIC50 [4]	AUC [5]	pIC50 [5]	AUC [6]	pIC50 [6]	AUC [7]	pIC50 [7]	AUC [8]	pIC50 [8]
SNU-423 (liver, adherent)	0.73	6.19	0.798	5.04	0.833	5.19	0.911	< 4.80	0.88	< 5.30	0.598	5.71	0.859	< 4.99	0.817	5.16
SNU-449 (liver, adherent)	0.923	< 5.70	0.853	4.84	0.986	< 5.10	0.838	4.91	0.94	< 5.30	0.876	< 4.80	0.98	< 4.99	0.877	< 5.00
SNU-C1 (large intestine, suspension)	0.654	6.39	0.875	< 4.80	0.944	< 5.10	0.969	< 4.80	0.976	< 5.30	0.951	< 4.80	0.98	< 4.99	0.932	< 5.00
SR (lymphoid neoplasm, suspension)	0.481	6.95	0.86	4.95	0.978	< 5.10	0.896	< 4.80	0.975	< 5.30	0.369	6.34	0.529	6.12	0.481	6.25
ST486 (Burkitt lymphoma, suspension)	0.684	6.42	0.689	5.50	0.882	5.17	0.689	5.50	0.975	< 5.30	0.633	5.65	0.723	5.60	0.721	5.62
SU8686 (pancreas, adherent)	0.665	6.42	0.94	< 4.80	0.942	< 5.10	0.804	5.04	0.95	< 5.30	0.759	5.20	0.967	< 4.99	0.852	5.04
SU-DHL-16 (B-cell lymphoma, suspension)	0.506	6.89	0.914	4.93	0.951	< 5.10	0.604	5.75	0.993	< 5.30	0.349	6.37	0.634	5.87	0.722	5.67
SUIT-2 (pancreas, adherent)	0.771	6.09	0.883	< 4.80	0.957	< 5.10	0.803	5.08	0.985	< 5.30	0.525	5.93	0.83	5.16	0.805	5.27
SUP-HD1 (Hodgkin lymphoma, suspension)	0.681	6.41	0.87	4.86	0.962	< 5.10	0.938	< 4.80	0.98	< 5.30	0.601	5.73	0.828	5.23	0.752	5.50
SUP-M2 (anaplastic large cell lymphoma, suspension)	0.417	7.11	0.902	4.92	0.992	< 5.10	0.93	4.80	0.971	< 5.30	0.361	6.34	0.845	5.31	0.632	5.88
SUP-T1 (T-cell lymphoblastic leukaemia, suspension)	0.866	5.82	0.658	5.58	0.955	< 5.10	0.946	< 4.80	0.973	< 5.30	0.453	6.12	0.534	6.10	0.872	5.09
SW684 (fibrosarcoma, adherent)	0.976	< 5.70	0.979	< 4.80	0.981	< 5.10	0.982	< 4.80	0.98	< 5.30	0.884	< 4.80	0.983	< 4.99	0.879	< 5.00
SW756 (cervix, adherent)	0.35	7.36	0.982	< 4.80	0.906	< 5.10	0.975	< 4.80	0.967	< 5.30	0.676	5.46	0.984	< 4.99	0.717	5.53
SW780 (bladder, adherent)	0.831	5.85	0.942	< 4.80	0.981	< 5.10	0.986	< 4.80	0.866	< 5.30	0.811	5.03	0.979	< 4.99	0.704	5.60
SW962 (urogenital system, adherent)	0.849	< 5.70	0.944	< 4.80	0.865	< 5.10	0.913	< 4.80	0.892	< 5.30	0.82	4.91	0.912	< 4.99	0.703	5.57
SW982 (soft tissue, adherent)	0.73	6.24	0.904	< 4.80	0.907	< 5.10	0.808	5.07	0.976	< 5.30	0.147	7.12	0.897	< 4.99	0.699	5.64
SW1417 (large intestine, adherent)	0.761	6.08	0.939	< 4.80	0.954	< 5.10	0.986	< 4.80	0.972	< 5.30	0.986	< 4.80	0.981	< 4.99	0.93	< 5.00

Cell Line	AUC [1]	pIC50 [1]	AUC [2]	pIC50 [2]	AUC [3]	pIC50 [3]	AUC [4]	pIC50 [4]	AUC [5]	pIC50 [5]	AUC [6]	pIC50 [6]	AUC [7]	pIC50 [7]	AUC [8]	pIC50 [8]
SW1710 (bladder, adherent)	0.761	6.14	0.905	< 4.80	0.952	< 5.10	0.567	5.82	0.958	< 5.30	0.364	6.38	0.908	< 4.99	0.696	5.65
SiHa (cervix, adherent)	0.782	6.01	0.982	< 4.80	0.969	< 5.10	0.987	< 4.80	0.931	< 5.30	0.972	< 4.80	0.981	< 4.99	0.86	< 5.00
T98G (glioma, adherent)	0.637	6.54	0.936	< 4.80	0.915	< 5.10	0.948	< 4.80	0.98	< 5.30	0.831	5.04	0.98	< 4.99	0.627	5.87
T-T (oesophagus, adherent)	0.741	6.22	0.933	< 4.80	0.782	5.48	0.739	5.32	0.983	< 5.30	0.814	5.06	0.837	5.17	0.693	5.66
TE-1 (oesophagus, adherent)	0.821	5.80	0.92	< 4.80	0.92	< 5.10	0.967	< 4.80	0.958	< 5.30	0.805	4.97	0.977	< 4.99	0.597	5.91
TE-5 (oesophagus, adherent)	0.831	5.81	0.918	< 4.80	0.891	< 5.10	0.902	< 4.80	0.897	< 5.30	0.547	5.86	0.975	< 4.99	0.717	5.55
TE-6 (oesophagus, adherent)	0.922	< 5.70	0.911	< 4.80	0.962	< 5.10	0.978	< 4.80	0.977	< 5.30	0.906	< 4.80	0.985	< 4.99	0.935	< 5.00
TE-8 (oesophagus, adherent)	0.826	5.88	0.88	< 4.80	0.902	< 5.10	0.615	5.67	0.917	< 5.30	0.766	5.20	0.924	< 4.99	0.599	5.92
TE-9 (oesophagus, adherent)	0.851		0.962	< 4.80	0.919	< 5.10	0.813	5.04	0.979	< 5.30	0.212	6.86	0.983	< 4.99	0.612	5.89
TE-11 (oesophagus, adherent)	0.77	6.16	0.955	< 4.80	0.974	< 5.10	0.893	< 4.80	0.962	< 5.30	0.814	5.11	0.989	< 4.99	0.589	5.97
TE-12 (oesophagus, suspension)	0.67	6.38	0.834	4.86	0.859	< 5.10	0.614	5.66	0.972	< 5.30	0.857	< 4.80	0.978	< 4.99	0.938	< 5.00
TE-15 (oesophagus, suspension)	0.718	6.25	0.735	5.29	0.939	< 5.10	0.692	5.43	0.962	< 5.30	0.551	5.85	0.975	< 4.99	0.894	< 5.00
TGBC11TKB (stomach, adherent)	0.59	6.67	0.931	< 4.80	0.988	< 5.10	0.95	< 4.80	0.981	< 5.30	0.962	< 4.80	0.9	< 4.99	0.763	5.49
TGW (neuroblastoma, adherent)	0.694	6.40	0.871	4.94	0.992	< 5.10	0.938	< 4.80	0.977	< 5.30	0.937	< 4.80	0.795	5.40	0.681	5.74
TK (B-cell lymphoma, suspension)	0.475	6.97	0.876	4.87	0.976	< 5.10	0.983	< 4.80	0.988	< 5.30	0.798	5.16	0.64	5.82	0.479	6.26
TOV-21G (ovary, adherent)	0.577	6.68	0.822	4.98	0.984	< 5.10	0.983	< 4.80	0.957	< 5.30	0.952	< 4.80	0.985	< 4.99	0.619	5.86
TT2609-C02 (thyroid, adherent)	0.729	6.23	0.841	4.91	0.915	< 5.10	0.744	5.28	0.985	< 5.30	0.373	6.36	0.986	< 4.99	0.89	< 5.00
